Source: paper PMC9911399, “Two distinct binding modes provide the RNA-binding protein RbFox with extraordinary sequence specificity”
Where a chain is given by its changes, count along the chain named. Some of the results follow.

T1: RBFOX1 RRM RbFoxmut (Fox-RRM*) (Homo sapiens, UniProt Q9NWB1 109-208, R118D;E147R;N151S;E152T)
T1 sequence: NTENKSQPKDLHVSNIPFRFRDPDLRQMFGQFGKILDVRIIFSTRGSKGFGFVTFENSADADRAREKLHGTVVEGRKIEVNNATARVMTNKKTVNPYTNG

B1: UGGGGAC (DNA:RNA)
RNA: GGGAGACCGGAAUUCAGAUUGUCCUGGGGACUUAAAUCCCGUCGUAGCCACCA
DNA 1: CAATCTGAATTCCGGTCTCCC
DNA 2: TGGTGGCTACGACGGGATT
B2: CGAGAUU (DNA:RNA)
RNA: B1 RNA with U25C, G27A, G29A, A30U, C31U
DNA 1: CAATCTGAATTCCGGTCTCCC
DNA 2: TGGTGGCTACGACGGGATT
B3: AUGAAUA (DNA:RNA)
RNA: B1 RNA with U25A, G26U, G28A, G29A, A30U, C31A
DNA 1: CAATCTGAATTCCGGTCTCCC
DNA 2: TGGTGGCTACGACGGGATT
B4: ACAAUAG (DNA:RNA)
RNA: B1 RNA with U25A, G26C, G27A, G28A, G29U, C31G
DNA 1: CAATCTGAATTCCGGTCTCCC
DNA 2: TGGTGGCTACGACGGGATT
B5: GACAUUU (DNA:RNA)
RNA: GGGAGACCGGAAUUCAGAUUGUCCGACAUUUUUAAAUCCCGUCGUAGCCACCA
DNA 1: CAATCTGAATTCCGGTCTCCC
DNA 2: TGGTGGCTACGACGGGATT
B6: UAGUCUU (DNA:RNA)
RNA: B5 RNA with G25U, C27G, A28U, U29C
DNA 1: CAATCTGAATTCCGGTCTCCC
DNA 2: TGGTGGCTACGACGGGATT
B7: UGGAGAC (DNA:RNA)
RNA: B1 RNA with G28A
DNA 1: CAATCTGAATTCCGGTCTCCC
DNA 2: TGGTGGCTACGACGGGATT
B8: UAGUGCG (DNA:RNA)
RNA: B1 RNA with G26A, G28U, A30C, C31G
DNA 1: CAATCTGAATTCCGGTCTCCC
DNA 2: TGGTGGCTACGACGGGATT
B9: CAUUACC (DNA:RNA)
RNA: B5 RNA with G25C, C27U, A28U, U29A, U30C, U31C
DNA 1: CAATCTGAATTCCGGTCTCCC
DNA 2: TGGTGGCTACGACGGGATT

Target: T1, RBFOX1 RRM RbFoxmut (Fox-RRM*)
Experiment: EMSA; HiTS-Eq, 1 nM pool, 10 min; buffer printed only for the single-RNA assays: 10 mM Tris pH 7.5, 150 mM NaCl, 3.4 mM EDTA, 0.001% NP-40, 30 C
Settings: tags: His6 N-terminal (pET28a); label: 5' 32P
Outline: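 Purified RbFox RRM (wild type or mutant) was equilibrated for 10 min in 50 µL with 1 nM of a 5′-radiolabelled pool of RNA with 7 randomized nucleotides, its flanks annealed to DNA oligonucleotides, across increasing protein concentrations. Free RNA was separated by 8% native PAGE, excised, reverse-transcribed, PCR-barcoded and sequenced on an Illumina HiSeq 2500. Relative association constants came from read-count changes of each variant against the control reaction, normalised to the cognate motif.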

Binder	binding signal
B1	0.0636 KA relative to UGCAUGU
B2	0.0702 KA relative to UGCAUGU
B3	0.161 KA relative to UGCAUGU
B4	0.0878 KA relative to UGCAUGU
B5	0.086 KA relative to UGCAUGU
B6	0.0742 KA relative to UGCAUGU
B7	0.0876 KA relative to UGCAUGU
B8	0.136 KA relative to UGCAUGU
B9	0.103 KA relative to UGCAUGU
